Results reported in patent US20100290984A1 (DUKE UNIVERSITY, published 2010).
No end group written: not given here.

Biological target: T1, MRP3-derived peptide IV (PepIV) (human, also: conjugated to BSA, biotinylated, site not given here)
T1 construct: Same peptide used as BSA conjugate (ELISA) and as biotinylated peptide (SPR)
T1 peptide: KIRSPQSFFDTTPSGRI
Test: SPR, BIAcore, biotinylated peptide on chip

binding result: binds
B1: PepIV-17 scFv (scFv)
scFv: QVQLQQSGPGLVKPSQTLSLTCAISGDSVSTNSAAWNWIRQSPSRGLEWLGRTYYRSKWYNDYAVSVKSRITISPDTSKNHFSLQLNSVTPEDTAVYYCAREGNDAFDIWGQGTMVTVSSGGGGSGGGGSGGGGSQSALTQPPSASGTPGQRVTIS[about 80 residues cut from this listing]FGGGTKLTVLGQPKATPS
notes: not shown: Myc and hexahistidine tags from the pET 22(+) vector
